Paper PMC5540273 (PLoS ONE, 2017)
For some assays here: What follows is the remainder of the data, with few or none of the strong results. This is a selection; strong and weak results do not stand in their true shares.

Experiments:
Details in all cases: concentration: 1 μM,replicates: in singlicate; n = 1
TXK = test system: TXK
[1] = test system: TYK2(JH1domain-catalytic)
[2] = test system: TYK2(JH2domain-pseudokinase)
TYRO3 = test system: TYRO3
ULK1 = test system: ULK1
ULK2 = test system: ULK2
ULK3 = test system: ULK3
VEGFR2 = test system: T1, VEGFR2
T1 construct: gene KDR

VPS34 = test system: T2, VPS34
T2 construct: gene PIK3C3

VRK2 = test system: VRK2
WEE1 = test system: WEE1
WEE2 = test system: WEE2
WNK1 = test system: WNK1
WNK2 = test system: WNK2
WNK3 = test system: WNK3
WNK4 = test system: WNK4
YANK1 = test system: T3, YANK1
T3 construct: gene STK32A

YANK2 = test system: T4, YANK2
T4 construct: gene STK32B

YANK3 = test system: T5, YANK3
T5 construct: gene STK32C

YES = test system: T6, YES
T6 construct: gene YES1
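Note: KINOMEscan kinase panel screen.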

Compound	%Inh (TXK)	%Inh [1]	%Inh [2]	%Inh (TYRO3)	%Inh (ULK1)	%Inh (ULK2)	%Inh (ULK3)	%Inh (VEGFR2)	%Inh (VPS34)	%Inh (VRK2)	%Inh (WEE1)	%Inh (WEE2)	%Inh (WNK1)	%Inh (WNK2)	%Inh (WNK3)	%Inh (WNK4)	%Inh (YANK1)	%Inh (YANK2)	%Inh (YANK3)	%Inh (YES)
CS(=O)(=O)c1ccccc1-c1nc(-c2ccc(F)cc2)c(-c2ccncc2)[nH]1 [SB-213663]	29%	19%	0%	0%	0%	8%	10%	0%	0%	92.2%	0%	9%	0%	0%	0%	0%	63%	71%	0%	0%
O=C1NC(=O)C(c2ccc(Cl)cc2)=C1Nc1ccc(O)c(Cl)c1 [SB-405367]	0%	2%	0%	0%	7%	8%	16%	0%	0%	0%	0%	6%	0%	0%	0%	0%	0%	14%	0%	0%
Cc1ccc(C)c(Oc2nccc(-c3c(-c4ccc(F)cc4)ncn3C3CCNCC3)n2)c1.O=C(O)C(F)(F)F.O=C(O)C(F)(F)F.O=C(O)C(F)(F)F [SB-284852]	12%	0%	0%	0%	0%	0%	0%	0%	0%	0%	6%	14%	0%	1%	0%	0%	80%	87%	41%	1%
COc1cccc(C2=C(Nc3ccc(SC)cc3)C(=O)NC2=O)c1 [SB-331032]	0%	40%	26%	16%	34%	24%	34%	4%	18%	34%	0%	2%	2%	0%	6%	17%	0%	0%	0%	0%
Cc1cc(C)cc(Oc2nccc(-c3c(-c4ccc(F)cc4)ncn3C3CCNCC3)n2)c1.O=C(O)C(F)(F)F.O=C(O)C(F)(F)F.O=C(O)C(F)(F)F [SB-284851]	21%	0%	6%	0%	0%	0%	19%	0%	9%	0%	14%	0%	0%	0%	0%	0%	56%	88%	0%	0%
O=C1NC(=O)C(c2ccccc2)=C1Nc1cc(Cl)c(O)c(Cl)c1 [SB-390530]	16%	7%	2%	0%	8%	0%	0%	20%	0%	0%	8%	0%	0%	14%	0%	10%	3%	0%	32%	0%
O=C1NC(=O)C(c2ccc(Cl)cc2)=C1Nc1cccc(C(=O)O)c1 [SB-360737]	24%	12%	44%	0%	23%	0%	14%	0%	0%	0%	14%	10%	14%	8%	29%	0%	2%	13%	10%	10%
CSc1ccc(NC2=C(c3cccc(Cl)c3)C(=O)NC2=O)cc1 [SB-341528]	0%	0%	0%	0%	0%	0%	0%	0%	0%	0%	0%	0%	0%	0%	0%	0%	0%	9%	0%	0%
O=C(O)c1ccc(-c2nc(-c3ccc(F)cc3)c(-c3ccncc3)[nH]2)cc1 [SB-202620]	21%	0%	4%	0%	9%	22%	16%	0%	17%	0%	14%	2%	20%	0%	0%	0%	9%	100%	24%	0%
O=C1NC(=O)c2c1c(-c1ccccc1)cc1[nH]c3ccc(O)cc3c21	0%	30%	53%	0%	24%	51%	92.9%	30%	0%	0%	32%	85%	0%	29%	0%	14%	5%	0%	0%	13%
O=C1NC(=O)C(c2ccccc2Cl)=C1Nc1ccccc1 [SB-376715]	3%	0%	0%	0%	4%	0%	2%	0%	12%	0%	3%	0%	24%	2%	30%	0%	0%	0%	0%	0%
COc1ccc(C2=C(Nc3cccc(Cl)c3)C(=O)NC2=O)cc1 [SB-326892]	20%	0%	0%	47%	0%	0%	12%	0%	7%	0%	19%	7%	0%	0%	0%	0%	0%	0%	0%	0%
O=C1NC(=O)C(c2ccc(Cl)cc2)=C1Nc1cccc(O)c1 [SB-333613]	0%	27%	42%	0%	39%	17%	42%	12%	0%	18%	35%	0%	36%	0%	47%	46%	0%	0%	0%	0%
O=C1NC(=O)C(c2ccccc2Cl)=C1Nc1cccc(C(=O)O)c1 [SB-390526]	4%	7%	13%	0%	27%	0%	100%	8%	29%	0%	0%	9%	0%	14%	28%	0%	2%	0%	2%	9%
O=C1NC(=O)C(c2ccccc2)=C1Nc1ccc(Cl)c(C(=O)O)c1 [SB-390532]	19%	37%	53%	0%	1%	0%	13%	1%	0%	49%	35%	0%	13%	21%	49%	50%	0%	0%	13%	16%
O=C1NC(=O)C(c2ccc(Cl)cc2)=C1Nc1ccccc1 [SB-317661]	0%	14%	41%	0%	33%	32%	31%	4%	45%	12%	0%	0%	2%	0%	15%	24%	0%	0%	0%	0%
